About 12,000 (3.5%) of roughly 340,000 compounds were called active. Inconclusive means that the source gave no clear call. Such entries were picked first, then a sample of the others. The call rests on the fitted dose curve; in most records, active means well fitted inhibition curve with a large enough effect; inconclusive means small, poorly fitted or top-dose-only effect, or another doubt; inactive means no such curve, though single readings can be large or run the other way. Potencies of inconclusive entries are left out as doubtful fits.
experiment: qHTS Assay for Inhibitors of Hepatitis C Virus (HCV); settings: Huh7.5.1 HCVcc-Cre (HCVcc is cell-culture hepatitis C virus) infection, luciferase reporter, 44 h; activity change, negative = inhibition: at 41.8 µM (top of the series)
How it was run: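 Whole-lifecycle infectious HCVcc-Cre system; cells 1,000/well, compound then virus (~0.5 moi) added 4 h after plating, 44 h culture. Luciferase read 15 sec following 15 min substrate incubation, room temp.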
On the % scale 0 is the no-effect control and ±100 the full control effect; potency means the concentration at half of the fitted maximal effect; tags describe the fitted curve by direction and shape.

| SMILES | Potency | activity change, negative = inhibition |
| --- | --- | --- |
| COc1cccc(-c2nn(-c3ccc(C)cc3)cc2C(=O)N(C)CC(=O)Nc2cccc(F)c2)c1 | inconclusive [inhibitor, full curve, poor fit] | – |
| O=C(CC1CC2CCC1C2)N1CCN(S(=O)(=O)c2ccccc2F)CC1 (stereo not drawn) | – | inactive: 15% |
| Cc1cccc(NC(=O)c2cc(-c3ccc(C)s3)nc3ccccc23)n1 | inconclusive [inhibitor, partial curve] | – |
| COc1ccc(CN=C(C)c2c(C(F)(F)F)[nH]n(-c3nc4ccccc4s3)c2=O)cc1 | inconclusive [inhibitor, partial curve] | – |
| CCCC(=O)Nc1ccc(Cl)c(NC(=O)c2cccc(OC)c2)c1 | inconclusive [inhibitor, partial curve] | – |
| CC(=O)Nc1ccc(S(=O)(=O)Oc2ccc(C(=S)N3CCC(O)CC3)cc2)cc1 | inconclusive [inhibitor, partial curve] | – |
| CCCN1CCC(NC(=S)Nc2cccc(Cl)c2Cl)CC1 | inconclusive [inhibitor, single point] | – |
| COc1ccc(NS(=O)(=O)c2cc(NC(=O)Cc3c(F)cccc3Cl)ccc2OC)cc1 | active: 12.6 µM | – |
| Cc1ccc(-c2nc3cccnc3s2)cc1NS(=O)(=O)c1ccc2c(c1)OCCO2 | inconclusive [inhibitor, single point] | – |
| COc1ccccc1-n1c(SC(C)C(=O)NCC2CCCO2)nc2cc(Cl)ccc2c1=O (stereo not drawn) | inconclusive [inhibitor, single point] | – |
| Cc1ccc(NC(=O)CSc2nnc(-c3cc(C)on3)o2)cc1 | – | inactive: 23.3% |
| COc1ccc(CNC(=O)C(c2ccco2)N(C(=O)c2snc(C(N)=O)c2N)c2cccc(OC)c2)cc1 (stereo not drawn) | inconclusive [inhibitor, single point] | – |
| Cc1ccc(NC(=S)Nc2cccc3cnccc23)cc1C | inconclusive [inhibitor, single point] | – |
| CC(=O)Oc1ccc(C)cc1-n1nc2ccccc2n1 | – | inactive: 6.21% |
| CCN(CC)S(=O)(=O)c1ccc(N/N=C/c2cc(OC)ccc2O)nc1 | active: 2.82 µM | – |
| COc1ccc(N(C)S(=O)(=O)c2cccc(C(=O)Nc3ccc4c(c3)OCCO4)c2)cc1 | active: 10 µM | – |
| CN1CCc2nc(NC(=O)COc3ccc4ccccc4c3)sc2C1 | inconclusive [inhibitor, full curve] | – |
| Cc1cccc(NC(=O)C2CCN(S(=O)(=O)c3c(C)noc3/C=C/c3ccco3)CC2)n1 | inconclusive [inhibitor, partial curve, poor fit] | – |
| O=C(NC1CCCC1)C(c1ccc(F)cc1)N(Cc1ccc(F)cc1)C(=O)CCl (stereo not drawn) | inconclusive [inhibitor, single point] | – |
| N/C(=N\OC(=O)Cc1ccccc1)c1ccc([N+](=O)[O-])cc1 | – | inactive: -2.98% |
| Nc1c(C(=O)c2cccs2)sc2nsc(SCCN3CCCCC3)c12 | active: 10 µM | – |
| C=CCNC(=S)N/N=C/c1ccc(C)cc1C | – | inactive: -18.8% |
| Cc1ccc(-c2noc(CSc3nnc(-c4ccncc4)n3-c3ccc(F)cc3)n2)cc1 | inconclusive [inhibitor, single point] | – |
| N#Cc1c2c(c(NCCCN3CCOCC3)n3c1nc1ccccc13)CCC2 | inconclusive [inhibitor, single point] | – |
| CCN(c1ccccc1)c1cc2ccccc2c(=O)[nH]1 | – | inactive: -17.7% |

| SMILES | Potency | activity change, negative = inhibition |
| --- | --- | --- |
| Cc1cccc(N(Cc2ccccc2)C(=O)c2ccccc2F)c1 | inconclusive [inhibitor, single point] | – |
| O=C(CC1SC(=Nc2ccccc2)N(CCc2c[nH]c3ccccc23)C1=O)Nc1ccccc1F (stereo not drawn) | inconclusive [inhibitor, single point] | – |
| COc1cc(OC)cc(C(=O)NCC(=O)OCC(=O)c2cc(OC)ccc2OC)c1 | – | inactive: 10.9% |
| Cc1cc(OCC(=O)NCC2CCC(C(=O)O)CC2)c2c(C)c(Cc3ccccc3)c(=O)oc2c1 (stereo not drawn) | – | inactive: -14.5% |
| CCn1ccnc1CN(C)C(=O)c1cc(COc2ccc(OC)c3ccccc23)on1 | inconclusive [inhibitor, single point] | – |
| c1ccn2cc(-c3ccc4c(c3)OCCO4)nc2c1 | – | inactive: -9% |
| O=C(CCc1nnc(C2(c3ccc(Cl)cc3)CCC2)o1)NC1CC1 | – | inactive: 17% |
| CCOC(=O)C1=C(COC(=O)/C=C/c2ccc(SC)cc2)NC(=O)NC1C (stereo not drawn) | inconclusive [inhibitor, single point] | – |
| CC(C)(C)NC(=O)CSc1nc2ccc(NC(=O)CSc3nnnn3Cc3ccccc3)cc2s1 | active: 2 µM | – |
| COc1ccc(-c2c(C#Cc3ccsc3)c3cc(-c4ccc(C(N)=O)cc4)ccc3n2C)cc1 | active: 7.08 µM | – |
| Cc1cccnc1NC(=O)c1cccc(S(=O)(=O)N2CCN(c3ccccc3)CC2)c1 | inconclusive [inhibitor, full curve] | – |
| c1ccc(Nc2nnc(-c3cccnc3)s2)cc1 | inconclusive [inhibitor, single point] | – |
| COc1ccc(C(=O)CN2C(=O)c3ccccc3C2=O)c(OC)c1 | – | inactive: 1.02% |
| Fc1ccc(-c2ccc3c(c2)C2CC3CCN2Cc2ccc3c(c2)OCO3)cc1 (stereo not drawn) | – | inactive: -36.1% |
| Cc1nc(SCC(=O)Nc2c(C)nn(C)c2C)c2cnn(-c3ccccc3)c2n1 | inconclusive [inhibitor, partial curve] | – |
| CCCn1c(C)cc(/C=C(\C#N)C(=O)OCC(=O)NC(=O)NCC)c1C | inconclusive [inhibitor, partial curve, poor fit] | – |
| Cc1ccc(C(=O)O/N=C(\N)c2ccc(Br)cc2)cc1C | – | inactive: -6.2% |
| Nc1nonc1C(=O)N/N=C/c1cc(Br)ccc1O | active: 11.2 µM | – |
| N/C(=N\OC(=O)COc1ccc(Cl)cc1Br)c1cccnc1 | – | inactive: -13.6% |
| Cc1cc(C)cc(C(=O)Nc2ccc(NC(=O)Cc3ccccc3)cc2)c1 | inconclusive [inhibitor, partial curve] | – |
| COc1ccc(NC(=O)[C@H](C)NC(=O)[C@@H]2Cc3ccccc3CN2C(=O)OC(C)(C)C)cc1 | – | inactive: -13.8% |
| Cc1ccc(C(OCCN(C)C)c2cccc(C(F)(F)F)c2)cc1 (stereo not drawn) | inconclusive [inhibitor, single point] | – |
| O=C(CCN1CCCCC1)NCC(=O)Nc1ccc(Br)cc1C(=O)c1ccccc1 | active: 10 µM | – |
| CCOc1ccc(NC(=O)COC(=O)c2cccnc2)cc1 | inconclusive [inhibitor, single point] | – |
| CCOc1ccc(CN2CCN(C/C=C/c3ccc(OC)cc3)CC2CCO)cc1 (stereo not drawn) | – | inconclusive: -52.4% [inhibitor] |

| SMILES | Potency | activity change, negative = inhibition |
| --- | --- | --- |
| CSC1=NC2C(N1)N(C)C(=O)N2C (stereo not drawn) | inconclusive [inhibitor, single point] | – |
| COc1ccc(C(=O)O/N=C(\N)Cc2ccc(Cl)cc2Cl)cc1OC | inconclusive [inhibitor, single point] | – |
| Cc1ccc2c(c1)nnn2C1CCN(CC(=O)Nc2ccccc2N2CCOCC2)CC1 | inconclusive [inhibitor, single point] | – |
| CC(C(=O)Nc1ccc(OCc2ccccc2)cc1)N1CCCC1 (stereo not drawn) | inconclusive [inhibitor, partial curve] | – |
| COc1ccc(/C=C/C(=O)NC(=S)NNC(=O)c2cccnc2)cc1OC | inconclusive [inhibitor, single point] | – |
| CCOC(=O)/C=C/C(=O)Nc1ccc(-c2nnc3n2CCCCC3)cc1 | – | inactive: 14.4% |
| CC(C)Sc1nc2c(c(=O)[nH]c(=O)n2C)n1Cc1ccccc1 | inconclusive [inhibitor, partial curve] | – |
| CC(=O)Nc1ccc(S(=O)(=O)NC(CC(=O)NCCc2ccccc2)C(C)C)cc1 (stereo not drawn) | – | inactive: 12.5% |
| CC(=O)Nc1ccc(S(=O)(=O)N2CCN(CCCOc3ccccc3Cl)CC2)cc1 | – | inactive: 6.96% |
| CN(CC(=O)Nc1nc2ccccc2s1)S(=O)(=O)c1ccc(Br)cc1 | inconclusive [inhibitor, partial curve] | – |
| CCC(CC)NC(=O)/C=C/c1ccccc1Cl | inconclusive [inhibitor, single point] | – |
| COc1ccc(-n2c(Cc3cccn3C)nnc2SCC(=O)Nc2ccc(F)cc2)cc1 | inactive | – |
| CC(C)(C)C(=O)N(CCN(C(=O)C(C)(C)C)c1ccccc1)c1ccccc1 | inconclusive [inhibitor, single point] | – |
| CN(CCc1ccccc1)C(=O)c1cccc(NC(=O)Cc2cccc(NC(=O)C3CCCN(C(=O)CCc4ccccc4)C3)c2)c1 (stereo not drawn) | active: 0.794 µM | – |
| CCCCc1ccc(NC(=S)N2CCCC(C)C2)cc1 (stereo not drawn) | – | inactive: -20.2% |
| CNC(=O)c1ccsc1NC(=O)c1ccc2c(c1)CCCC2 | inconclusive [inhibitor, single point] | – |
| O=C(Nc1cccc(F)c1)c1cc(S(=O)(=O)N2CCOCC2)ccc1N1CCCC1 | – | inactive: 12.3% |
| Cc1nn(Cc2ccc(F)cc2)c2sc(C(=O)Nc3nccs3)cc12 | inconclusive [inhibitor, single point] | – |
| C=CCNc1cc(C(F)(F)F)nc(-c2ccccn2)n1 | – | inactive: -3.16% |
| CCC(=O)OCCNc1cc(Sc2nccn2C)c2nonc2c1[N+](=O)[O-] | inconclusive [inhibitor, single point] | – |
| CCOc1cc(CNc2ncnc3nc[nH]c23)ccc1OC | inconclusive [inhibitor, partial curve] | – |
| CCOC(=O)C1=C(c2ccc(OC)cc2)OC(N)=C(C#N)C1c1cccnc1 (stereo not drawn) | – | inactive: 27.1% |
| O=C(Nc1ccc(OC(F)(F)F)cc1)c1ccc2ccccc2n1 | – | inactive: -3.74% |
